In the supplement of paper PMC12217912:
The list shows a part of the results. Sequences were assembled here from the parent chain. Inactive controls read about 0.05.

B1: TEV protease; numbered along this chain (parent)
chain: MGESLFKGPRDYNPISSSICHLTNESDGHTTSLYGIGFGPFIITNKHLFRRNNGTLVVQSLHGVFKVKDTTTLQQHLVDGRDMIIIRMPKDFPPFPQKLKFREPQREERICLVTTNFQTKSMSSMVSDTSCTFPSGDGIFWKHWIQTKDGQCGSPLVSTRDGFIVGIHSASNFTNTNNYFTSVPKNFMELLTNQEAQQWVSGWRLNADSVLWGGHKVFMVKPEEPFQPVKEATQL

Variants of: B1
Assay: raw area under fraction-flipped curve 0-4 h after induction (AUC4h, not background-subtracted), DNA-recorder readout of cleavage of the substrate (dimensionless); higher = more cleavage of the substrate by the protease variant
Settings: temperature: 34 °C; time window: 0-4 h after rhamnose induction
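Also: Bxb1 expression induced with 0.2% (w/v) L-rhamnose at OD600 near 0.5, cultures sampled hourly, flipped fraction per protease–substrate barcode pair counted by paired-end Illumina sequencing.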

Variant	area with substrate ENLFFQS	area with substrate ENLKFQS	area with substrate ENLMFQS	area with substrate ENLNFQS	area with substrate ENLPFQS	area with substrate ENLSFQS	area with substrate ENLWFQS	area with substrate ENLEFQS	area with substrate ENLHFQS	area with substrate ENLIFQS
P134A	0.129	0.0814	0.0799	0.0732	0.0815	0.0633	0.071	–	–	–
P134M	0.0728	–	–	–	–	0.046	–	0.0438	0.062	0.0745
P228T	0.0924	0.0768	–	0.0586	–	0.0452	–	0.0723	–	–
P228I	0.0674	–	–	0.0597	–	0.0538	–	–	0.0421	–
R51D	0.0925	0.0817	–	0.0746	–	–	0.0793	–	0.0717	–
K230R	–	0.0695	–	0.0672	–	–	–	–	–	0.0903
V126D	0.099	0.0749	–	0.0644	0.0341	–	–	0.0648	0.0797	–
T233I	0.0762	–	–	0.0655	–	–	–	0.0938	–	–
T233A	–	–	–	0.0601	0.0424	–	–	–	–	–
A196P	0.0743	0.0374	0.0758	0.0664	0.0584	0.063	0.0778	0.0512	0.0469	0.0802
F173K	–	0.0757	–	–	–	–	–	0.063	0.0431	–
W212H	0.0434	–	–	0.0647	–	–	–	–	–	–
S182D	0.0561	–	0.0592	–	–	0.0362	0.0553	–	–	–
H215T	–	0.0629	0.0653	–	0.058	–	–	–	0.0558	–
V78H	0.0649	–	–	0.0603	–	–	0.0429	0.0649	–	0.0593
V78Q	–	–	–	0.0543	–	–	–	–	–	–
T72W	0.0775	0.075	0.0666	0.0654	–	0.0587	0.0556	–	0.0595	–

Variant	area with substrate ENLFFQS	area with substrate ENLKFQS	area with substrate ENLMFQS	area with substrate ENLNFQS	area with substrate ENLPFQS	area with substrate ENLSFQS	area with substrate ENLWFQS	area with substrate ENLEFQS	area with substrate ENLHFQS	area with substrate ENLIFQS
T159W	–	0.0745	0.069	–	–	0.0647	–	–	–	–
G63E	0.0752	0.0687	0.0636	0.0645	–	–	0.0509	–	–	0.0718
V165K	0.0619	0.0589	0.0698	0.0522	0.0543	0.0506	0.0503	0.047	0.0774	0.0474
T119K	–	–	–	–	0.0464	–	–	0.066	–	–
N53P	0.0591	0.0667	0.0499	0.0705	0.0364	0.0553	0.0556	0.0689	0.0752	0.0763
A170P	0.0476	0.0587	–	–	–	–	0.066	–	–	–
P94C	0.091	0.0761	–	0.0626	–	–	–	–	–	–
P94H	0.0846	0.0821	–	0.047	0.0623	0.0663	0.0805	–	0.0419	0.0802
E223P	0.0698	0.0769	–	–	0.0672	0.0649	–	0.0699	0.0699	0.0644
Q97V	–	0.0685	–	–	–	–	–	–	–	0.0698
D149A	0.091	0.0817	–	0.0632	0.0472	0.0546	–	–	0.087	0.0887
E231D	–	0.0846	–	0.0749	–	–	0.0755	–	0.0585	–
E231K	–	0.0808	–	0.072	–	0.0782	–	–	0.0698	0.0803
G214L	0.0622	–	–	–	–	–	–	–	0.0645	–
F218Q	0.0816	0.071	–	–	0.0798	0.0418	0.06	–	0.0604	–
C131L	–	–	–	–	–	–	0.0755	–	–	–
Q227H	0.0788	0.0974	–	0.0656	0.0599	–	–	0.0496	–	–

Same assay, conditions: temperature: 34 °C; time window: 0-4 h after rhamnose induction

Variant	area with substrate ENLDFQS	area with substrate ENLRFQS	area with substrate ENLVFQS	area with substrate ENLQFQS	area with substrate ENLTFQS	area with substrate ENLGFQS	area with substrate ENLLFQS
P228T	0.0662	0.0607	–	–	–	–	–
P228I	0.0547	0.061	0.0914	–	–	–	–
R51D	–	–	0.0543	0.0818	0.0691	–	–
K230R	0.071	0.0838	–	–	–	–	–
V126D	–	0.0642	–	0.0833	–	0.0537	–
T233I	0.0574	–	–	0.0733	–	–	–
T233A	–	–	–	0.0649	–	0.039	0.105
A196P	–	–	0.0683	0.066	–	0.0589	0.0875
F173K	–	0.0556	–	–	–	–	–
W212H	–	–	–	–	0.0566	–	0.0559
S182D	–	–	0.0594	–	–	0.0603	0.0529
H215T	0.0528	–	–	0.0651	–	0.0556	0.0636
V78H	–	0.062	0.0683	0.0625	–	0.0733	0.0588
V78Q	–	–	–	–	–	0.0659	–
T72W	–	0.0715	–	–	0.0454	0.0651	–
G63E	–	0.0681	0.0664	0.0605	0.0632	–	–
V165K	–	0.0583	0.0496	0.0533	0.0548	0.054	0.0524
T119K	–	–	–	–	–	–	0.0642
N53P	–	0.0553	–	0.0442	–	0.0836	–
A170P	–	0.0637	–	–	–	–	–
P94H	–	0.0761	–	–	–	–	0.0684
E223P	0.065	–	–	–	–	–	0.122
D149A	–	0.0644	–	0.0843	–	–	0.0794
E231D	0.0873	–	–	–	0.0729	–	0.0823
E231K	–	–	–	–	–	0.07	–
G214L	0.0042	–	0.057	0.0795	–	–	0.0603
F218Q	0.0626	0.0644	–	0.0554	–	–	–
Q227H	0.0177	–	–	–	–	–	–
